Data taken from PubChem BioAssay AID504466 (National Center for Advancing Translational Sciences (NCATS), 2011).
Screen size: about 330,000 compounds; about 4,200 (1.3%) were called active. Inconclusive results, whose numbers are uncertain, are shown with a selection of clear calls. Calls come from the whole dose curve; as a rule, active = well fitted activation curve with a large enough effect; inconclusive = small, poorly fitted or top-dose-only effect; inactive = no such curve, though single readings can be large or run the other way. Potencies beside an inconclusive call are fits to weak or partial responses and may not hold up.

Assay: qHTS screen for small molecules that induce genotoxicity in human embryonic kidney (HEK293T) cells expressing luciferase-tagged ELG1; note: nearly all actives have a fitted effect of over 60% in size; for activity change, positive = activation: % of control where 0% means no effect
Settings: HEK293T ELG1-luciferase reporter, luminescence, 16 h; series mostly up to 46 µM; activity change, positive = activation: at the top concentration
Procedure, shortened: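 Quantitative HTS format in 1536-well plates. HEK293T ELG1-luciferase reporter cells receive test compound and are incubated 16 hr at 37 °C, 5% CO2; ONE-Glo added, 30 min room temperature, then luminescence read.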
Potency is the fitted concentration of half-maximal effect; tags give direction and shape of the fitted curve.

Structure (SMILES)	Potency	activity change, positive = activation
N#Cc1c(-c2ccc(Cl)cc2)c2c([nH]c1=S)CCCC2	inconclusive: 16.4 µM [activator, single point]	–
CCOc1ccc2nc(NC(=O)CSc3nnc(-c4ccncc4)n3CC3CCCO3)sc2c1 (centres undefined)	inconclusive: 29.1 µM [activator, single point]	–
CC(C)N(C(=O)Cn1cc(SCC(N)=O)c2ccccc21)C(C)C	–	inactive: -1.91%
C=CCn1c(SCC(=O)c2[nH]c(C)c(C(=O)OCC)c2C)nc2scc(-c3ccc(OC)cc3)c2c1=O	inconclusive: 6.51 µM [activator, partial curve]	–
Cc1csc2ncc(C(=O)Nc3ccccc3F)c(=O)n12	active: 11.6 µM	–
COc1ccc2sc3ccccc3c(=O)c2c1OC	inconclusive: 18.4 µM [activator, partial curve, poor fit]	–
Cc1cccc(NC(=O)c2cc3c(s2)-c2c(C)cccc2OC3)n1	inconclusive: 23.1 µM [activator, single point]	–
Cc1ccc(Cn2ccc(=O)c(OCc3ccccc3)c2C)cc1	inconclusive: 13 µM [activator, partial curve, poor fit]	–
O=S(=O)(Nc1cccc(-c2cn3ccsc3n2)c1)c1ccc(F)cc1	inconclusive: 23.1 µM [activator, partial curve, poor fit]	–
O=C(CSc1ccc(Cl)cc1)OCC(=O)N1CCN(c2ccccc2)CC1	–	inactive: -10.3%
O=C(CSc1ncnc2ccccc12)NCC(=O)c1ccccc1	–	inactive: -19.3%
COc1ccc(Cc2nc(C(=O)NCc3ccccc3OC)cs2)cc1	–	inactive: -1.63%
CCN(CC)CCNC(=O)c1cc(Nc2ccc(OC)c(OC)c2)nc2ccccc12	–	inactive: -0.503%
O=C1c2ccccc2-c2ccc(C(=O)N3CCOCC3)cc21	inconclusive: 20.6 µM [activator, partial curve]	–
COc1ccc(-c2cc(-c3ccccc3O)[nH]n2)cc1	inconclusive: 1.16 µM [activator, partial curve]	–
O=C(COC(=O)c1ccc(O)cc1O)Nc1ccc2c(c1)OCCO2	inconclusive: 16.4 µM [activator, partial curve, poor fit]	–
COC(=O)c1cc(Nc2cc(C)c3ccc(O)cc3n2)cc(C(=O)OC)c1	–	inactive: 4.74%
COc1ccccc1CNC(=O)C1COc2ccccc2O1 (centres undefined)	active: 18.4 µM	–
O=C(Nc1ccc(N=Nc2ccccc2)cc1)c1ccccc1Cl	inconclusive: 6.51 µM [activator, partial curve]	–
O=C1CCc2cc(NS(=O)(=O)c3cc(F)ccc3F)cc3c2N1CC3	–	inactive: 19.7%
O=C(Nc1ccc(OCc2ccccc2)cc1)c1cccnc1	inconclusive: 10.3 µM [activator, partial curve, poor fit]	–
N/C(Cc1ccc(Cl)cc1Cl)=N\OC(=O)c1ccccc1F	inconclusive: 14.6 µM [activator, partial curve, poor fit]	–
COc1ccc2cc(/C(C)=N/NC(=O)C3CC3)ccc2c1	active: 18.3 µM	–
CCOC(=O)c1c(-c2ccc(OCC)cc2)csc1NC(=O)CCN1C(=O)c2ccccc2C1=O	–	inactive: -6.87%
Cc1c(C(=O)N2CCC2)oc2ccc(Br)cc12	inconclusive: 20.6 µM [activator, partial curve]	–

Structure (SMILES)	Potency	activity change, positive = activation
COc1ccc2nc(SCC(=O)N(C)CC(=O)Nc3ccc(F)cc3)[nH]c2c1	–	inactive: 2.35%
Cc1ccc(NC(=O)CNCc2cccs2)c(Br)c1	inconclusive: 23.1 µM [activator, single point]	–
O=c1oc2cc(O)ccc2cc1-c1ccccc1	inconclusive: 18.3 µM [activator, single point]	–
Cc1ccccc1NC(=O)c1ccc(Nc2c([N+](=O)[O-])cc([N+](=O)[O-])c3ccccc23)cc1	–	inactive: -12.7%
CC(C)(C)NC(=O)c1ccc(C(=O)NC(C)(C)C)cc1	–	inactive: 1.22%
CC/C(=N/Nc1cccc(C)c1)c1cnnc(SC)n1	inconclusive: 25.9 µM [activator, partial curve, poor fit]	–
CCOC(=O)C(=O)/C(C#N)=C/Nc1ccccc1	–	inactive: 1.79%
CCN(CC)C(=O)c1sc(NC(=O)c2cccc([N+](=O)[O-])c2)c(C#N)c1C	–	inactive: -8.93%
CN(C)c1cccc(/C=C(\C#N)c2ccccc2)c1	active: 4.11 µM	–
Cc1ccn2cc(-c3cccc([N+](=O)[O-])c3)nc2c1	active: 0.461 µM	–
COc1cc(/C=N/NC(=O)Nc2ccccc2)ccc1OC(C)=O	inconclusive: 18.4 µM [activator, single point]	–
Cc1ccnc(NC(=O)c2ccc(NC(=O)c3ccco3)cc2)c1	inconclusive: 8.2 µM [activator, partial curve, poor fit]	–
Cc1ccc(Nc2nc(N)nc(CSC(=S)N3CCOCC3)n2)c(C)c1	inconclusive: 18.4 µM [activator, partial curve, poor fit]	–
Cc1cc(C(=O)COC(=O)c2ccc[nH]c2=O)c(C)n1-c1ccccc1	active: 0.82 µM	–
O=C(CCCC(=O)OCC(F)(F)C(F)F)Nc1nccs1	inconclusive: 20.6 µM [activator, partial curve]	–
COc1ccc(-c2cc(C(=O)NCC3CCCO3)c3cc(C(C)C)ccc3n2)cc1 (centres undefined)	–	inactive: -1.17% [at 9.26 µM]
O=C(CP(=O)(c1ccccc1)c1ccccc1)Nc1nc2ccc(Cl)cc2s1	–	inactive: -7.97%
Cc1ccccc1-c1nnc(-c2cccs2)o1	inconclusive: 25.9 µM [activator, partial curve]	–
O=C(Nc1ccc2nc(-c3ccccc3)[nH]c2c1)c1cccs1	inconclusive: 9.2 µM [activator, partial curve, poor fit]	–
CCCc1cc(C(=O)Nc2ccc(C(C)=O)cc2)no1	inconclusive: 20.6 µM [activator, single point]	–
O=C(OCC(=O)N1CCCc2ccccc21)c1cc(S(=O)(=O)N2CCOCC2)ccc1O	–	inactive: 3.09%
CNc1sc(C(=O)c2ccccc2F)c(N)c1-c1nc2ccccc2s1	inconclusive: 16.4 µM [activator, single point]	–
CN(CC1CCCN(CCc2ccc(F)cc2)C1)C(=O)CCC(N)=O (centres undefined)	–	inactive: -1.72%
CCOC(=O)c1c(C)[nH]c(C(=O)OCC(=O)Nc2ccc(OCC)cc2)c1C	inconclusive: 31.6 µM [activator, single point]	–
CS(=O)(=O)Nc1ccc(C(=O)Nc2ccc3ccccc3c2)cc1	inconclusive: 2.91 µM [activator, full curve]	–

Structure (SMILES)	Potency	activity change, positive = activation
CSc1ccccc1NC(=O)Nc1ccccc1	inconclusive: 17.8 µM [activator, single point]	–
Cc1ccc(S(=O)(=O)/N=C2\C=C(Nc3cccc(C(=O)O)c3)C(=O)c3ccccc32)cc1	–	inactive: -33.9%
CCOc1ccc(-c2nc3ccccc3c(=O)o2)cc1	inconclusive: 6.51 µM [activator, partial curve, poor fit]	–
Clc1cc2nc(-c3cccnc3Cl)[nH]c2cc1Cl	active: 4.61 µM	–
COc1ccc(-c2coc3cc(O)cc(O)c3c2=O)cc1OC	inconclusive: 20.6 µM [activator, single point]	–
COc1cccc2cc(C(=O)OCC(=O)N3CC(C)OC(C)C3)c(=O)oc12 (centres undefined)	inconclusive: 18.3 µM [activator, partial curve, poor fit]	–
Cc1nc(-c2noc(-c3ccc(Cl)cc3)n2)c(C(F)(F)F)o1	–	inactive: 8.37%
COc1ccc(/C(N)=N/OC(=O)c2cccc([N+](=O)[O-])c2)cc1	inconclusive: 7.94 µM [activator, partial curve]	–
O=C(CCOc1ccccc1)Nc1ccnn1C1CCN(C(=O)CCC(F)(F)F)CC1	–	inactive: 3.77%
O=[N+]([O-])c1ccc2oc(-c3ccccc3)nc2c1	inconclusive: 3.98 µM [activator, partial curve]	–
CC(C)(C)c1csc(NC(=O)c2cccs2)n1	inconclusive: 3.66 µM [activator, single point]	–
CCn1cnc2sc(C(=O)Oc3cccc(C)c3)c(C)c2c1=O	active: 18.3 µM	–
COc1cccc(/C=N/NC(=O)c2cccs2)c1	active: 20.6 µM	–
CCOc1cc(/C=C(\C#N)c2[nH]nc(N)c2C#N)ccc1O	inconclusive: 11.6 µM [activator, partial curve, poor fit]	–
NNC(=O)c1cccn(Cc2ccc(Cl)cc2Cl)c1=O	–	inactive: -6.97%
O=C(Nc1ccccn1)c1ccc(C(=O)c2ccccc2)cc1	active: 4.61 µM	–
Cc1ccc(NC(=O)Nc2ccc(Cl)cc2)c(Br)c1	inconclusive: 23.1 µM [activator, partial curve, poor fit]	–
CCN=c1scc(-c2ccc(F)cc2)n1/N=C/c1ccccn1	active: 10.3 µM	–
CCNc1nc(NCC)nc(N/N=C/c2ccc(O)c(O)c2)n1	inconclusive: 20.6 µM [activator, single point]	–
O=C(Nc1ccc(C(=O)c2ccccc2)cc1)c1ccccc1	inconclusive: 13 µM [activator, partial curve, poor fit]	–
O=C(NCc1ccccn1)Nc1cccc(Cl)c1	inconclusive: 18.4 µM [activator, partial curve]	–
Cn1c(=O)oc2cc(S(=O)(=O)N3CCC(C(=O)NCc4ccccc4Cl)CC3)ccc21	inconclusive: 32.6 µM [activator, partial curve, poor fit]	–
Cc1ccc(-c2cc(-c3ccc(C)cc3O)[nH]n2)cc1	inconclusive: 1.58 µM [activator, partial curve]	–
CCc1ccc(N2CC(C(=O)Nc3ccc4c(c3)OCCO4)CC2=O)cc1 (centres undefined)	inconclusive: 20.6 µM [activator, partial curve, poor fit]	–
